# ChEMBL document CHEMBL4888484, “Replenishing the malaria drug discovery pipeline: Screening and hit evaluation of the MMV Hit Generation Library 1 (HGL1) against asexual blood stage Plasmodium falciparum ,using a nano luciferase reporter read-out” (2022)
# Values joined by “and” are separate entries in the source; they are usually repeats but may differ in a detail not shown here. Equal entries are not always repeated. Screen size: about 150,000 compounds; about 540 (0.36%) showed an effect of 50% or more. The list shows a part of the results.
# Tested on: Plasmodium falciparum
# Test: Primary screen in NF54 nanoGlo assay, in single point, at 2uM, 72h; a lower Z score goes with more inhibition
# Format: functional, Erythrocyte
# Details: timepoint 72 hour
SMILES,% Inhibition,Z score,% Inhibition (2 µM)
COCC1(CNC(=O)N(Cc2ccsc2)C2CCCC2)CC1,-4%,0.51,
O=C1NCCN1C(=O)N1C2CCC1CC(n1ccnn1)C2 (centres undefined),-8%,1.26,
Cc1ccc(C(=O)O)c(N2C[C@H]3CCC[C@@H](C3)C2)n1,-7%,0.91,
Clc1ccccc1CCNC(=NC1CCOCC1)NC1CC1,-8%,0.77,
NS(=O)(=O)c1ccc(C(=O)N2CCC(F)(F)C2)o1,-20%,3.37,
O=C(c1cccc(-n2cccn2)n1)N(CC1CC1)C1CC1,-3%,0.31,
CCOC(=O)N1CCC(NC(C)C(O)c2ccc(F)cc2)CC1 (centres undefined),-8%,0.96,
CC1CN(C(=O)NCC2CCCS(=O)(=O)C2)CC(c2ccsc2)O1 (centres undefined),-5%,0.75,
COc1nnc(NC(=O)NC[C@H]2CCCCS2(=O)=O)s1,-6%,0.93,
CC(C)c1cccc(C(=O)N2C[C@@H](C)N(CCO)[C@@H](C)C2)n1,6%,-0.72,
CN(C)c1ncccc1COC(=O)c1cc[nH]c1C1CC1,2%,-0.28,
CC1OCCC12CN(C(=O)c1ccc(Cl)c(Cl)c1)CCO2 (centres undefined),-8%,1.15,
O=C(O)[C@@H]1CN(c2nc(C3CC3)nc3[nH]ccc23)C[C@H]1C(F)(F)F,19%,-2.46,
NC(=O)CCN1CCN(C(=O)CCN2Cc3ccccc3O[C@H](c3ccccc3F)C2)CC1,-13%,2.04,
Cc1nn(C)c(C)c1CCC(=O)N1CCC[C@H](C(N)=O)C1,2%,-0.32,
COC(=O)[C@@H]1CCCN1C1CCN(C(=O)c2cc(O)ccc2C)CC1,-8%,1.16,
CNC(=O)c1ccc(C(=O)N2CCC([C@@H]3CCCO3)CC2)cn1,-17%,2.33,
O=C(NCCc1ccccc1)[C@H]1CC[C@H](Cn2cnnn2)CC1,-7%,0.95,
Cc1ccc(F)c(C(=O)N2CCNC[C@H]2C(=O)N2CCN(C)CC2)c1Cl,0%,-0.05,
COc1cccc(C2c3[nH]c4ccccc4c3C[C@H]3C(=O)N(c4ccc(C(=O)NCCc5ccccc5F)cc4)C(=O)N23)c1 (some centres undefined),2%,-0.4,
Cc1cc(CN2CCN(C)CC2)c(C)c(CN(CCO)Cc2cccs2)c1,-3%,0.49,
CS(=O)(=O)c1c(Cl)cccc1NC(=O)N1CCC2(CCC2)C1,-20%,2.01,

SMILES,% Inhibition,Z score,% Inhibition (2 µM)
Cc1cccc([C@H](C)NC(=O)c2[nH]nc(C)c2Cl)n1,-24%,2.83,
O=C(COc1ccc(Cl)cc1)N1CCCc2cnc(N3CCOCC3)nc21,-9%,1.31,
CC(C)(C)c1ccc(C(=O)Nc2nc3n(n2)[C@H](c2ccc(Cl)cc2)CC(=O)N3)cc1,-11%,1.14,
O=C(CCN1C(=O)CCC1=O)Nc1ncc(Cc2ccccc2)s1,-4%,0.8,
C#CCN(CC#C)C(=O)c1cc(S(N)(=O)=O)cc(Cl)c1F,-4%,0.65,
CC(C)CN1CCCn2nc(CNc3ncnc4c3CCC4)cc2C1,-1%,0.14,
O=C(CCCn1cnnn1)Nc1ccc(-c2nc[nH]n2)cc1,,,1% and -5%
CS(=O)(=O)NC[C@H]1CCCN(c2nc(C(F)(F)F)ns2)C1,-10%,1.3,
NC(=O)[C@@H]1CCCN1C(=O)c1csc2ccccc12,-9%,1.23,
CCOC(=O)CN(C(=O)C1CCCOC1C)C(C)(C)C (centres undefined),-3%,0.42,
C[C@H]1CCCN(C(=O)Nc2ncc(Cc3ccccc3)s2)C1,-3%,0.32,
CCN(C(=O)c1ccc(-c2ccc(Cl)cc2F)cc1)C1CCOCC1,-7%,0.93,
CCN1CCCN(S(=O)(=O)N2CC(C)CC(C)C2)CC1 (centres undefined),-2%,0.25,
CNC(=O)[C@H](C1CCCC1)N1CCN(C(=O)c2ccc(Cl)cc2Cl)CC1,12%,-1.44,
CC(=O)N1CCN(c2nnc(C)c(C)c2C#N)CC1,-12%,1.25,
CC(=O)N1CCN(C2CN(Cc3ccc(F)cc3)CC2C)CC1 (centres undefined),4%,-0.33,
N#Cc1c(CN2CCc3cncnc3C2)cn2ccccc12,-1%,0.23,
Fc1cccnc1N1CCOC2(CCC2)C1,-15%,1.72,
Cc1noc(C)c1CN1C[C@H]2CC[C@@H](C1)N(Cc1nnc(-c3ccccc3)o1)C2,-23%,2.23,
Cc1nnc(CN(CCOc2ccccc2)C[C@H]2CCCO2)s1,-9%,1.34,
O=C1[C@@H]2CC[C@@H](CN(c3nc4ccccc4s3)C2)N1Cc1ccccc1,6%,-1.22,
CCNC(=O)NC(=O)CNc1cc(CO)ccc1C,-7%,1.17,

SMILES,% Inhibition,Z score,% Inhibition (2 µM)
CC(C)C[C@@H]1N[C@H](C(=O)NC2CCCC2)Cc2cn(C)c3cccc1c23,36%,-4.04,
CO[C@@H](CS(=O)(=O)Nc1cc(C#N)ccc1F)C1CC1,3%,-0.49,
Cc1cc(CN=C(N)NC2CC2)ccc1F,-7%,0.63,
O=C(Nc1ccc(Nc2ncccn2)cc1)C1CCC(F)(F)CC1,-2%,0.38,
COCCc1nc(CCn2ccc(C)n2)n(-c2ccc(C)cc2C)n1,-7%,1.01,
CC1CCCC1(C#N)NC(=O)CCC(=O)OC(C)(C)C (centres undefined),-6%,0.63,
CN1CC2(CN(C(=O)c3cc4cccc(Cl)c4s3)C2)OC1=O,-3%,0.42,
CCC(C)(C)c1ccc(OCCCCNC(=O)c2cc(-c3cccc(OC)c3)nn2-c2cc(C)ccc2C)c(C(C)(C)CC)c1,-9%,1,
COCCN(Cc1ccc(OC)c(OCc2nc(CO)cs2)c1)C(=O)c1ccc(Cl)cc1,-6%,1.06,
CC(C)CN(Cc1ccsc1)C(=O)c1cnc(N2CCOCC2)nc1,-9%,0.87,
CN(CCc1ccccn1)c1cncc(Br)c1,-11%,1.43,
O=C(NCc1ccc2c(c1)OCO2)[C@H]1CC(=O)N(C2CCCCCCC2)C1,-5%,0.86,
COCCNC(=O)[C@H]1C[C@H](Oc2cccnc2)CN1S(=O)(=O)c1ccc(OC)cc1,-16%,3,
Cn1cncc1CCC(=O)NCC1(c2cccc(F)c2F)CCCC1,-1%,0.07,
CCC1CN(C(C)=O)CCC1NCc1cccc2[nH]ccc12 (centres undefined),6%,-0.76,
COC(=O)[C@H](NC(=O)c1ccc2cc[nH]c2c1)c1cccc(O)c1,-4%,0.51,
Cc1ncc(C(=O)Nc2ncccc2-c2ccccc2)c(C)n1,-14%,2.23,
Cc1cc(C)c2c(CC(=O)N(C)[C@H]3COC[C@@H]3O)coc2c1C,9%,-1.68,
Cc1cnn([C@@H](C)CNC(=O)CCn2cncn2)c1,-6%,1.06,
Cc1cc(=O)n2nc(-c3ccccc3)nc2n1CC(=O)Nc1ccc(F)cc1,-8%,1.04,
Clc1ccc(Cn2ncc3c(N4CCCCC4)ncnc32)cc1,12%,-1.97,
O=C(COc1ccc(N2C[C@@H](C(=O)NCCc3ccccc3)CC2=O)cc1)Nc1ccc(F)cc1,-2%,0.24,

SMILES,% Inhibition,Z score,% Inhibition (2 µM)
O=C(Nc1cnccn1)c1cccc(-n2ccnn2)c1,2%,-0.47,
CCOc1oc(C(=O)NCCc2ccc(S(N)(=O)=O)cc2)nc1C,-10%,2.01,
COc1ccc(C(=O)NC2CCS(=O)(=O)CC2)cn1,-20%,2.19,
COc1ccc(C(=O)N2Cc3cccnc3C2)cc1F,-16%,1.82,
CC[C@H]1CCCN(CC(=O)Nc2sc3c(c2C#N)CCCCC3)C1,-8%,1.22,
CC1CC1NC(=NCC1CCCO1)NCc1nc(C2CC2)no1 (centres undefined),-5%,0.66,
CC[C@@H](CO)NC(=O)Nc1ccccc1N(C)CC,4%,-0.61,
Cc1ccccc1NC(=O)c1cccn1-c1cccnc1C,-5%,0.5,
CN(Cc1cc2cc(F)ccc2[nH]1)S(=O)(=O)C1CC1,-14%,1.45,
COc1ccc(Oc2ccc(-c3noc([C@H]4CC(=O)N(c5ccccc5)C4)n3)cc2)cc1,-3%,0.31,
COCCN(CC(=O)N1N=C(c2cccn2C)C[C@H]1c1ccccc1)C(=O)C(C)C,-5%,0.56,
O=C(N1CCCC1)N1C[C@@H]2[C@@](C(F)(F)F)(CCCS2(=O)=O)C1,3%,-0.49,
COc1ccc(CNCc2cc(O)c3cc(F)ccc3n2)c(OC)c1,-22%,2.04,
Cc1n[nH]cc1CN(C)C(=O)c1cn2cc(Cl)cnc2n1,-9%,0.85,
CNC(=O)c1cccc(Cn2nnnc2-c2ccncc2)c1,-18%,2.92,
N#Cc1cc(N2CC[C@H](S(N)(=O)=O)C2)ccn1,4%,-0.61,
COc1ccccc1CNC(=O)c1ccc(C)nc1C1CCN(S(=O)(=O)c2ccccc2)CC1,-9%,1.05,
O=S(=O)(c1ccc(S(=O)(=O)N(Cc2ccc(F)cc2)C2CCCCC2)cc1)N1CCOCC1,-2%,0.21,
O=C(Nc1ccc(CCc2nc3ccccc3[nH]2)cc1)c1cnccn1,-17%,1.66,
